Drawing on PubChem BioAssay AID1745853 (National Center for Advancing Translational Sciences (NCATS), 2022), this text covers activity change, negative = inhibition for 29 molecules.

Holding throughout (test): Primary Screen for Target Class Profiling of Small Molecule Inhibitors of Methyltransferases
The target of assay [1] is Glycine N-methyltransferase (Homo sapiens) (UniProt Q14749). The following applies: purified enzyme, MTase-Glo SAH luminescence; measured here: GNMT inhibition; at 40 µM; stronger effect = lower value. In short, it runs like this: (§1)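 Each enzyme was assayed with SAM and its substrate. SAH formation detected by MTase-Glo luminescence; single-point 40 uM screen[…].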

The target in assay [2] is Guanidinoacetate N-methyltransferase (Homo sapiens) (UniProt Q14353). The following applies: purified enzyme, MTase-Glo SAH luminescence; measured here: GAMT inhibition; at 40 µM; stronger effect = lower value. The method in brief:
as §1

The target of assay [3] is Histamine N-methyltransferase (Homo sapiens) (UniProt P50135). The following applies: purified enzyme, MTase-Glo SAH luminescence; measured here: HNMT inhibition; at 40 µM; stronger effect = lower value. The method in brief:
as §1

Assay [4] has as its target Nicotinamide N-methyltransferase (Homo sapiens) (UniProt P40261). The note with it: purified enzyme, MTase-Glo SAH luminescence; measured here: NNMT inhibition; at 40 µM; stronger effect = lower value. In short, it runs like this:
as §1

For assay [5], the target named is Phenylethanolamine N-methyltransferase (Homo sapiens) (UniProt P11086). The note with it: purified enzyme, MTase-Glo SAH luminescence; measured here: PNMT inhibition; at 40 µM; stronger effect = lower value. In short, it runs like this: as §1

The other results are listed elsewhere or left out. Further columns of the screen follow, without active or inactive calls.
% is scaled to controls: 0 for no effect and ±100 for the full control effect.

For `CCOC(=O)c1cc2n(n1)CC(C)(C(=O)NC1CCCCCC1)N(c1cccc(Cl)c1C)C2=O` (stereo not drawn), the activity change, negative = inhibition in assay [1] is -0.261%; in assay [2], 3.41%; in assay [3], -4.93%; in assay [4], 1.31%; in assay [5], -0.267%.

As to `Cc1cccc(N2CCN(S(=O)(=O)c3ccc4c(c3)n(C)c(=O)n4C)CC2C)c1` (stereo not drawn), the activity change, negative = inhibition in assay [1] was -0.342%; in assay [2], 2.71%; in assay [3] it was 3.17%; in assay [4] it was 4.79%; in assay [5] it was -0.909%.

For the molecule `CN(C)c1ccc(Nc2nc(N)n(C(=O)c3c(F)cccc3F)n2)cc1`, the activity change, negative = inhibition in assay [1] is -21.6%; in assay [2], -8.4%; in assay [3], 1.72%; in assay [4], -24.3%; in assay [5] it was -32%.

On to `O=C(NCc1ccc(F)cc1)C1=NOC2CN(C(=O)Nc3cccnc3)CC12` (stereo not drawn), for which the activity change, negative = inhibition in assay [1] is -4.11%; in assay [2] it was -2.1%; in assay [3], -3.26%; in assay [4] it was -7.82%; in assay [5] it was -5.91%.

In the case of `CCc1ccc(S(=O)(=O)N2c3ccccc3CC2c2nnc(C3CCOCC3)o2)cc1` (stereo not drawn), the activity change, negative = inhibition is -1.77% in assay [1]; -2.11% in assay [2]; 0.772% in assay [3]; -17.4% in assay [4]; 11.1% in assay [5].

Take `CC(C)Oc1ccc(CN2C(=O)c3cc(-c4ccccc4)nn3CC2(C)C(=O)NCc2ccccc2)cc1` (stereo not drawn): the activity change, negative = inhibition was 0.61% in assay [1]; 3.4% in assay [2]; -0.589% in assay [3]; -4.33% in assay [4]; -6.92% in assay [5].

In the case of `COc1ccc(OC)c(N2C(=O)c3cc4occc4n3CC2(C)C(=O)NC2CCCCCC2)c1` (stereo not drawn), the activity change, negative = inhibition in assay [1] was -13.2%; in assay [2], 0%; in assay [3], 4.29%; in assay [4], -5.11%; in assay [5], 0.207%.

As to `OC[C@H]1O[C@@H](OCCc2ccccc2)[C@H](O)[C@@H](O)[C@@H]1O`, the activity change, negative = inhibition was 4.63% in assay [1]; 4.4% in assay [2]; 8.49% in assay [3]; -8.42% in assay [4]; 0.74% in assay [5].

Take `O=C(COc1cc(O)c2c(=O)cc(-c3ccccc3)oc2c1)c1ccc(F)cc1`: the activity change, negative = inhibition in assay [1] is -7.25%; in assay [2], 4.87%; in assay [3], -0.29%; in assay [4], -0.564%; in assay [5], -3.22%.

On to `Cc1ccc(C#N)c(NCc2cccnc2Oc2cccc(C(F)(F)F)c2)n1`, for which the activity change, negative = inhibition in assay [1] was -2.94%; in assay [2] it was -8.3%; in assay [3], -2.34%; in assay [4], -12.6%; in assay [5] it was -3.63%.

`O=C1CC2(CCN(Cc3ccc(C(F)(F)F)cc3)CC2)Oc2ccccc21`: the activity change, negative = inhibition is -8.69% in assay [1]; -3.13% in assay [2]; -2.77% in assay [3]; -11.6% in assay [4]; -29.2% in assay [5].

`COC(=O)C1=CO[C@@H](O[C@@H]2O[C@H](CO)[C@@H](O)[C@H](O)[C@H]2O)/C(=C\CO)[C@@H]1CC(=O)OCCc1ccc(O)cc1`: the activity change, negative = inhibition in assay [1] is 0%; in assay [2], 0.95%; in assay [3] it was 1.13%; in assay [4], -12.7%; in assay [5], 2.47%.

Regarding `Cc1ccc(Cn2c(=O)c3ccc(C(=O)NC(C)C)cc3n3c(=O)n(Cc4ccccc4)nc23)cc1`, the activity change, negative = inhibition is 8.65% in assay [1]; 1.69% in assay [2]; 12.6% in assay [3]; 10.9% in assay [4]; 10.9% in assay [5].

As for `CCOC(=O)c1ccc(NC2CCCCC2)c(N)c1`, the activity change, negative = inhibition in assay [1] was 2.92%; in assay [2], 3.96%; in assay [3], 2.08%; in assay [4] it was -21.3%; in assay [5], -4.08%.

Regarding `CC(=O)O[C@H]1C[C@@H]2CC[C@@H]3[C@H](CC[C@@]4(C)[C@H]3C[C@H]([N+]3(C)CCCCC3)[C@@H]4OC(C)=O)[C@@]2(C)C[C@@H]1[N+]1(C)CCCCC1`, the activity change, negative = inhibition is 10% in assay [1]; 13.7% in assay [2]; -7.17% in assay [3]; -2.07% in assay [4]; 0.799% in assay [5].

Consider `C[C@@H]1O[C@@H](O[C@H]2[C@H](O)[C@@H](O[C@@H]3O[C@H](CO)[C@@H](O)[C@H](O[C@@H]4O[C@H](CO)[C@@H](O)[C@H](O)[C@H]4O)[C@H]3O)[C@H](O[C@H]3CC[C@@]4(C)C(=CC[C@@H]5C4CC[C@@]4(C)C5C[C@@H]5OC6(CC[C@@](C)(CO[C@@H]7O[C@H](CO)[C@@H](O)[C@H](O)[C@H]7O)O6)[C@@H](C)[C@@H]54)C3)O[C@@H]2CO)[C@H](O)[C@H](O)[C@H]1OC1OC(CO)C(O)C(O)C1O` (stereo partly drawn), for which the activity change, negative = inhibition in assay [1] is 8.24%; in assay [2] it was 6.97%; in assay [3] it was 11.4%; in assay [4] it was -2.08%; in assay [5], 6.83%.

For `COc1ccccc1CN1C(=O)c2cc3occc3n2CC1(C)C(=O)NC1CCCCCCC1` (stereo not drawn), the activity change, negative = inhibition in assay [1] worked out at 1.06%; in assay [2] it was 0.551%; in assay [3], 7.07%; in assay [4], 0.331%; in assay [5], 3.05%.

For the molecule `CC1CCC(NC(=O)C2(C)Cn3c(cc4occc43)C(=O)N2Cc2ccccc2)CC1` (stereo not drawn), the activity change, negative = inhibition in assay [1] was -5.09%; in assay [2] it was 3.26%; in assay [3], 1.96%; in assay [4] it was -11.9%; in assay [5], 0.332%.

Consider `COCC1CN(C)CC12CCN(C(=O)CCc1ccc(OC)cc1)CC2` (stereo not drawn), for which the activity change, negative = inhibition in assay [1] is -2.33%; in assay [2] it was -4.4%; in assay [3], -7.63%; in assay [4], -4.07%; in assay [5] it was -14.2%.

With `O=C1c2c(O)ccc(O)c2C(=O)c2c(NCCNCCO)ccc(NCCNCCO)c21`, the activity change, negative = inhibition in assay [1] is -40.9%; in assay [2], -34%; in assay [3] it was -44.7%; in assay [4] it was -32.4%; in assay [5], -29.1%.

`COc1cccc(CNC(=O)[C@@]23CCCC[C@H]2N(CCc2ccccc2)C(=O)CC3)c1`: the activity change, negative = inhibition in assay [1] is -1.79%; in assay [2], 1.44%; in assay [3] it was -1.72%; in assay [4], -3.27%; in assay [5], -3.61%.

Turning to `Cc1cc(C)c(/C=C2\C(=O)Nc3ccc(Cl)cc32)[nH]1`, the activity change, negative = inhibition is -15.4% in assay [2], -23.5% in assay [4] and -3.63% in assay [5].

As for `Cc1nnc2n1CCC(NC(=O)CCCc1nc3ccccc3s1)CC2` (stereo not drawn), the activity change, negative = inhibition in assay [1] is -1.38%; in assay [2], 1.35%; in assay [3] it was -0.008%; in assay [4], -2.32%; in assay [5], -1.29%.

Consider `CCCCN1C(=O)c2cc3ccccc3n2CC1(C)C(=O)NC1CCCC1` (stereo not drawn), for which the activity change, negative = inhibition in assay [1] was 0.413%; in assay [2], 0%; in assay [3], 1.89%; in assay [4] it was 6.22%; in assay [5], -1.55%.

In the case of `CNC(=O)[C@@H]1C[C@H](n2cc(CNS(=O)(=O)c3cc(C)ccc3F)nn2)CN1`, the activity change, negative = inhibition in assay [1] is -7.26%; in assay [2], -10.7%; in assay [3] it was -4.47%; in assay [4] it was -10.1%; in assay [5], -0.746%.

For the molecule `CC1CCC(NC(=O)C2(C)Cn3c(cc4occc43)C(=O)N2CCc2ccc(Cl)cc2)CC1` (stereo not drawn), the activity change, negative = inhibition was -5.76% in assay [1]; 0% in assay [2]; 0.49% in assay [3]; -5.13% in assay [4]; -4.42% in assay [5].

For `O=S(=O)(c1ccccc1)c1nnn2c1nc(NC1CC1)c1cc(Cl)ccc12`, the activity change, negative = inhibition in assay [1] is -9.46%; in assay [2], 3.32%; in assay [3], -0.253%; in assay [4], -4.15%; in assay [5], -6.17%.

As for `COc1ccc(-c2nc3c(C)cccc3cc2CN2CCC(O)CC2)cc1OC`, the activity change, negative = inhibition in assay [1] is -9.39%; in assay [2], -7.63%; in assay [3], -11.5%; in assay [4], -15.5%; in assay [5], -2.48%.

Take `O=C(CC1CCCN(c2cn[nH]c(=O)c2)C1)N1CCCCC1` (stereo not drawn): the activity change, negative = inhibition in assay [1] was -0.096%; in assay [2], -1.99%; in assay [3], 1.38%; in assay [4] it was -2.04%; in assay [5] it was 2.06%.
